According to the supplement of paper PMC7826260:
Some of the results follow. Viral Rep nickase domains cut single-stranded DNA in vitro (3 µM enzyme, 1 h, 37 °C); shown is the middle of each 90-letter strand. Values are log2 of uncut reads against the no-enzyme pool; uncut sequences lie near 0, cut ones below; no hit call is given. Because reads are shares of a total, they shift together, so uncut sequences can rise above 0 when many others are cut.

Columns and labels:
Assay in all cases: uncleaved DNA left, log2 of reads against the no-enzyme library (log2 ratio); higher = less cleavage (more negative = more Rep cleavage of the k-mer); sequences stand for … in CTCGTCCG…ACCGGAGA
[1] = tested on: T1, Rep nickase domain of Muscovy duck circovirus
T1 sequence (residues 1-111 of Rep, tag left off): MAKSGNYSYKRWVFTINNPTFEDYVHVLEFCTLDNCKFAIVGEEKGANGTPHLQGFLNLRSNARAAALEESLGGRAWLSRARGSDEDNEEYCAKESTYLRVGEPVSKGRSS
Procedure: (§1)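 A pool of 90-nt single-stranded DNAs with seven random bases just before the constant AC of the nick site (name = the seven bases) was cut by 3 µM recombinant His6-SUMO-tagged Rep nickase domain (300 nM DNA, 50 mM HEPES pH 8.0, 50 mM NaCl, 1 mM MnCl2, 1 h, 37 °C, three replicates). Uncut DNA was amplified and sequenced.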

[2] = tested on: T2, Rep nickase domain of banana bunchy top virus
T2 sequence (residues 1-94 of Rep, tag left off): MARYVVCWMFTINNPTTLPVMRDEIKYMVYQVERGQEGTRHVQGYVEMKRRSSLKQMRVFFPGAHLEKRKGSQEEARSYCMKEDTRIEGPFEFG
Procedure: as §1

[3] = tested on: T3, Rep nickase domain of cabbage leaf curl virus
T3 sequence (residues 1-116 of Rep, tag left off): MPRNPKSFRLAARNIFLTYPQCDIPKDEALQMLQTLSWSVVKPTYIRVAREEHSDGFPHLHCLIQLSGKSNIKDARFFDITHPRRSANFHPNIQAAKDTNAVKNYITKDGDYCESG
Procedure: as §1

[4] = tested on: T4, Rep nickase domain of chickpea chlorotic dwarf virus
T4 sequence (residues 1-124 of Rep, tag left off): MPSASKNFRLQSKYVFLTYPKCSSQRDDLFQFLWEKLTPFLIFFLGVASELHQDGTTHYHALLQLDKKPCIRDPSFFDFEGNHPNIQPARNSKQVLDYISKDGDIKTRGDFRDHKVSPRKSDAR
Procedure: as §1

[5] = tested on: T5, Rep nickase domain of faba bean necrotic yellows virus
T5 sequence (residues 1-98 of Rep, tag left off): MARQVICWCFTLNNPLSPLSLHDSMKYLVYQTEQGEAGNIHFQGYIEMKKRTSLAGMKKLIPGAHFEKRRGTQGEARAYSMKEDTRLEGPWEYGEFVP
Procedure: as §1

[6] = tested on: T6, Rep nickase domain of maize striate mosaic virus
T6 sequence (residues 1-117 of Rep, tag left off): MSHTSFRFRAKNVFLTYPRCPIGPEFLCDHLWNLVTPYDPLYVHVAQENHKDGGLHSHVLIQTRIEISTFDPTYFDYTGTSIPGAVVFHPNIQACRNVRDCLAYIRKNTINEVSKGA
Procedure: as §1

[7] = tested on: T7, Rep nickase domain of porcine circovirus 2
T7 sequence (residues 2-116 of Rep, tag left off): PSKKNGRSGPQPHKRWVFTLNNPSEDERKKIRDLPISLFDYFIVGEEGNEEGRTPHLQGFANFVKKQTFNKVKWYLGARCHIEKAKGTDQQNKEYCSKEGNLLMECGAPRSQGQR
Procedure: as §1

[8] = tested on: T8, Rep nickase domain of tomato golden mosaic virus
T8 sequence (residues 1-124 of Rep, tag left off): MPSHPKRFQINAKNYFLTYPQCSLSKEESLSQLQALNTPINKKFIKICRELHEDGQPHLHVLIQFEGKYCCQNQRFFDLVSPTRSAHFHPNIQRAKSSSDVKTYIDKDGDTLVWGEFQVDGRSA
Procedure: as §1

[9] = tested on: T9, Rep nickase domain of tomato yellow leaf curl virus
T9 sequence (residues 1-136 of Rep, tag left off): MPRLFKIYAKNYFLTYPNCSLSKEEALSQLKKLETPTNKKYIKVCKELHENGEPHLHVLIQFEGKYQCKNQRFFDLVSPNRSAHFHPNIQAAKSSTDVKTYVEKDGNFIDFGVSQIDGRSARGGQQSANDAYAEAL
Procedure: as §1

[10] = tested on: T10, Rep nickase domain of wheat dwarf virus
T10 sequence (residues 1-137 of Rep, tag left off): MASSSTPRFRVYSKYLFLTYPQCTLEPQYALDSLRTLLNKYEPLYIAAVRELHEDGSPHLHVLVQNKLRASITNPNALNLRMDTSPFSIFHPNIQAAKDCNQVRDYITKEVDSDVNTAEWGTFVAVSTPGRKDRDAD
Procedure: as §1

Row | Sequence | uncleaved DNA left (log2) [1] | uncleaved DNA left (log2) [2] | uncleaved DNA left (log2) [3] | uncleaved DNA left (log2) [4] | uncleaved DNA left (log2) [5] | uncleaved DNA left (log2) [6] | uncleaved DNA left (log2) [7] | uncleaved DNA left (log2) [8] | uncleaved DNA left (log2) [9] | uncleaved DNA left (log2) [10]
1 | GCCTAGC | -0.0227 | -0.129 | -0.42 | -0.0784 | -0.116 | -0.869 | -0.031 | -0.231 | -0.0793 | -0.144
2 | ATAGGTA | 0.113 | 0.0576 | 0.25 | 0.927 | 0.0966 | 1.29 | 0.0756 | 0.116 | -0.129 | 0.0416
3 | ATACCTA | 0.0387 | 0.041 | -0.0913 | -0.958 | 0.0964 | -0.229 | -0.399 | 0.0255 | -0.0599 | -0.00501
4 | TGGGGGC | 0.0406 | 0.0352 | 0.808 | 1.5 | -0.0669 | 2 | 0.247 | 0.0955 | -0.0464 | 0.102
5 | ACTGGAG | 0.0481 | -0.0131 | -0.863 | -0.272 | -0.0331 | -1 | 0.142 | 0.0355 | 0.109 | -0.139
6 | GCAAGGA | 0.0179 | 0.0495 | 0.12 | 0.368 | 0.0471 | -0.0546 | 0.137 | 0.071 | -0.0469 | 0.021
7 | CCGGCGG | -0.0615 | -0.116 | 0.0676 | 0.655 | -0.128 | 0.807 | 0.00937 | -0.0475 | -0.237 | -0.258
8 | AAACGCG | -0.0906 | -0.0154 | -0.576 | 0.813 | -0.0397 | -0.194 | 0.11 | -0.0678 | 0.0386 | -0.124
9 | TAGACTT | 0.0651 | -1.09 | -0.94 | -1.15 | -0.828 | 1.53 | -3.5 | -0.0835 | 0.12 | 0.0231
10 | TACGGAG | -0.0455 | -0.0707 | -0.472 | -0.728 | 0.0113 | -1.02 | 0.158 | 0.0105 | -0.00335 | -0.0849
11 | CATCGAT | 0.0826 | -0.142 | -0.105 | -0.296 | -0.0224 | -0.2 | -0.135 | -0.127 | -0.138 | -0.067
12 | CACACTG | -0.0258 | 0.0117 | -0.164 | 0.289 | -0.0092 | 0.409 | -0.0391 | -0.0938 | -0.126 | -0.0178
13 | AGAATAC | 0.147 | 0.0142 | 0.0609 | -0.308 | -0.00651 | -0.427 | 0.129 | 0.12 | 0.0115 | 0.111
14 | CGCCACC | -0.0157 | 0.0918 | 0.125 | -0.292 | -0.0159 | -0.103 | -0.267 | -0.0637 | 0.0423 | -0.0714
15 | GAAGTCT | 0.0941 | 0.0369 | -0.2 | -1.91 | 0.0551 | 0.42 | -0.311 | -0.0423 | 0.0289 | -0.0824
16 | TAGCCAA | -0.0364 | -0.0535 | 0.113 | -0.548 | -0.109 | -0.274 | -0.209 | 0.0204 | 0.0879 | 0.083
17 | TAACTAC | 0.0222 | -0.0184 | -0.815 | -3.03 | 0.0134 | -0.499 | -0.0243 | -0.0546 | 0.0616 | -0.204
18 | CCGTATA | -0.2 | -0.114 | -0.215 | -1.3 | -0.13 | -0.43 | -0.219 | -0.222 | -0.0264 | -0.201
19 | TATCGCT | -0.0631 | -0.0517 | -1.04 | -2.66 | -0.0266 | -1.28 | -1.07 | -0.031 | 0.0117 | -0.164
20 | GCACACA | -0.0778 | 0.000982 | -0.00917 | -0.403 | -0.111 | -0.116 | -0.121 | -0.0917 | -0.0641 | -0.041
21 | ACAATAG | 0.147 | 0.195 | -0.517 | 0.15 | 0.0662 | -0.688 | 0.285 | 0.125 | 0.211 | 0.105
22 | TTTGTTC | -0.039 | -0.151 | 0.0147 | -1.46 | -0.0364 | -0.655 | -0.327 | -0.278 | -0.0894 | -0.189
23 | AGTTATT | -3.5 | -3.91 | -2.71 | -2.75 | -2.94 | -0.332 | -4.45 | -0.794 | 0.0762 | -2.3
24 | GTTCCCA | -0.0222 | 0.147 | 0.328 | 0.893 | 0.0447 | 1.84 | -0.114 | 0.0319 | 0.119 | 0.164
25 | ATCTGTT | -2.33 | -0.685 | -0.249 | -0.847 | -0.214 | 0.605 | -3.73 | -0.196 | -0.0459 | -0.277
26 | GGCCGCG | 0.0393 | -0.0321 | -0.565 | 0.0312 | 0.0105 | -0.365 | 0.118 | 0.048 | -0.128 | -0.117
27 | GCAAACT | -0.00214 | 0.0389 | -0.0993 | -2.25 | -0.0217 | -0.395 | -0.03 | 0.0546 | -0.0817 | -0.0684
28 | ATTTTAT | -0.781 | -0.372 | -0.00893 | -1.14 | 0.069 | -0.693 | -1.82 | -0.0442 | 0.00298 | -0.117
29 | TCAACTT | 0.0527 | -0.0102 | -0.338 | -2.6 | 0.0362 | -0.295 | -0.34 | 0.0364 | 0.00614 | -0.0429
30 | AGTCGAT | -0.0416 | 0.045 | 0.249 | 0.809 | 0.132 | 1.25 | -2 | 0.0299 | 0.0536 | 0.13
